PubChem BioAssay AID588855 (National Center for Advancing Translational Sciences (NCATS), 2011)
Values joined by “and” are separate entries in the source; they are usually repeats but may differ in a detail not shown here. Equal entries are not always repeated. Among all 410,000 compounds or so, about 5,000 (1.2%) were called active. Inconclusive means that the source gave no clear call. Such entries were picked first, then a sample of the others. The call rests on the fitted dose curve; in most records, active means well fitted inhibition curve with a large enough effect; inconclusive means small, poorly fitted or top-dose-only effect; inactive means no such curve, though single readings can be large or run the other way. A potency beside an inconclusive call is a rough fit, not a confirmed value.
On the % scale 0 is the no-effect control and ±100 the full control effect; potency means the concentration at half of the fitted maximal effect; tags describe the fitted curve by direction and shape.

Test: qHTS for Inhibitors of TGF-b; further: nearly all actives have a fitted effect of over 65% in size
Details: HepG2 CAGA-GFP TGF-b/SMAD3 reporter, GFP fluorescence, 18 h, TGF-beta stimulated, 500 pg/mL final; series mostly up to 46.1 µM; activity, negative = inhibition: at the top concentration
How it was run: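 Per well, imaged GFP fluorescence of HEPG2 CAGA-GFP cells gives the signal; cells get compound, then TGF-beta (500 pg/mL final), 18 h at 37 degrees C; %Activity versus -TGF-beta and +DMSO controls.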
For COc1cc(CN(C)Cc2cccc3ccccc23)cc([N+](=O)[O-])c1O, the “activity, negative = inhibition” value was inactive: 0.686%.
With COc1cc(NC(=O)c2csc(-c3ccncc3)n2)cc(C(=O)Nc2cccc(C(F)(F)F)c2)c1 the Potency was inconclusive: 7.08 µM [inhibitor, partial curve].
With CCCCN(C)C(=O)c1ccc(Nc2nc(C(N)Cc3ccccc3)cs2)nc1 (stereo not given) the Potency was inconclusive: 31.6 µM [inhibitor, single point].
In the case of Cc1cc(C)c(N2CCN(S(=O)(=O)N3CCCCCC3)CC2)c(C)c1, the Potency is reported as inconclusive: 35.5 µM [inhibitor, partial curve, poor fit].
In the case of CCN(Cc1nc2ccccc2c(=O)[nH]1)C(=O)c1cccc(S(=O)(=O)N2CCc3ccccc32)c1, the Potency is reported as inconclusive: 35.5 µM [inhibitor, single point].
With Cc1ccc(S(=O)(=O)Nc2ccc(-c3cn4ccc(C)cc4n3)cc2)cc1 the “activity, negative = inhibition” value was inactive: -14.8%.
In the case of COc1ccc(CN(C(=O)CN2C(=O)C(C)Oc3ccccc32)C2CCCC2)c(OC)c1 (stereo not given), the Potency is reported as inconclusive: 35.5 µM [inhibitor, partial curve, poor fit].
In the case of Cc1ccc(S(=O)(=O)N2CCOC2CNC(=O)C(=O)NCCc2c[nH]c3ccccc23)cc1 (stereo not given), the Potency is reported as inconclusive: 35.5 µM [inhibitor, single point].
For CCN(CC)S(=O)(=O)c1ccc(Cl)c(NC(=O)c2cc(Cl)cc(Cl)c2)c1, the “activity, negative = inhibition” value was inactive: 8.47%.
In the case of Cc1ccc(-c2nn(-c3ccccc3)cc2C(N)=O)o1, the “activity, negative = inhibition” value is reported as inactive: 0%.
For CCOC(=O)c1c(C)[nH]c(C(=O)OCC(=O)NCCc2ccc(OCC)c(OCC)c2)c1C, the Potency was inconclusive: 3.98 µM [inhibitor, full curve].
In the case of O=C(OC1CCOC1=O)c1cccc(S(=O)(=O)Nc2ccc(F)cc2)c1 (stereo not given), the Potency is reported as inconclusive: 3.16 µM [inhibitor, single point].
In the case of C[C@H](CO)N1C[C@H](C)[C@@H](CN(C)Cc2ccc(C(=O)O)cc2)Oc2c(NS(=O)(=O)c3ccc(F)cc3)cccc2C1=O, the Potency is reported as inconclusive: 4.47 µM [inhibitor, full curve, poor fit].
For Cn1cc(CCC(=O)NCc2cccc(Cl)c2)c2ccccc21, the “activity, negative = inhibition” value was inactive: -12.8%.
For O=C(NC1CCCC1)c1cc2cc(Br)ccc2o1, the Potency was inconclusive: 11.2 µM [inhibitor, single point].
For O=C(Nc1nccs1)c1ccc2ccccc2c1, the Potency was inconclusive: 6.31 µM [inhibitor, full curve, poor fit].
With CCOc1ccc(NC(=O)CC(Cc2cc(C)cc(C)c2)C(=O)O)cc1 (stereo not given) the Potency was inconclusive: 35.5 µM [inhibitor, single point].
For O=S(=O)(/N=C(/Nc1ccc(Cl)c(S(=O)(=O)Nc2ccccc2Cl)c1)c1ccc(F)cc1)c1ccccc1, the Potency was inconclusive: 10 µM [inhibitor, partial curve, poor fit] and inconclusive: 35.5 µM [inhibitor, single point].
In the case of COc1ccc(NC(=O)c2ccc(S(=O)(=O)N3CCCCCC3)cc2)c(OC)c1, the “activity, negative = inhibition” value is reported as inactive: 0.572%.
In the case of COc1ccccc1-c1nnc(Nc2nc3c(OC)cccc3s2)o1, the Potency is reported as inconclusive: 2.82 µM [inhibitor, single point].
With O=C(CCC(=O)Nc1ccc(Cl)cc1Cl)N/N=C/c1ccc([N+](=O)[O-])o1 the Potency was active: 11.2 µM.
In the case of Cc1ccnc(NC(c2ccccc2)c2ccc3cccnc3c2O)c1 (stereo not given), the Potency is reported as inconclusive: 10 µM [inhibitor, partial curve, poor fit].
In the case of CCOC(=O)C1=C(C)NC(=O)NC1C (stereo not given), the “activity, negative = inhibition” value is reported as inactive: -14.2%.
For O=C(Cc1ccccc1)NCC(=O)OCC(=O)c1ccccc1Cl, the Potency was inconclusive: 6.31 µM [inhibitor, single point].
In the case of FC(F)(F)c1cc(Oc2ccccc2)ncc1-c1nnc(-c2ccccc2Cl)o1, the Potency is reported as inconclusive: 11.2 µM [inhibitor, partial curve].
In the case of Cc1ccccc1-c1nnn(CC(=O)NC(=O)NC2CCCC2)n1, the Potency is reported as inconclusive: 17.8 µM [inhibitor, single point].
With CC(C)(C)[C@H]1COC(=O)[C@@H](Cc2ccc(F)cc2)CC/C=C/C[C@@H](CC(=O)N[C@@H](CO)Cc2ccccc2)C(=O)N1 the “activity, negative = inhibition” value was inactive: -25.8%.
With Cc1ccnc(NC(=O)CNC(=O)c2ccc(Br)o2)c1 the Potency was inconclusive: 22.4 µM [inhibitor, single point].
In the case of COC(=O)c1ccc(S(=O)(=O)N2CCCN(Cc3cccc(Br)c3F)CC2)n1C, the Potency is reported as inconclusive: 10 µM [inhibitor, partial curve, poor fit].
For O=C(CSc1ncnc2scc(-c3ccccc3)c12)N1CCN(c2ccccc2F)CC1, the Potency was inconclusive: 17.8 µM [inhibitor, single point].
For C/C(CCc1ccc2c(c1)OCO2)=N\N=C(/N)SC1CC(=O)N(c2ccc(Cl)cc2)C1=O (stereo not given), the Potency was inconclusive: 11.2 µM [inhibitor, single point].
With C=CC[C@H](CC(=O)OC(C)(C)C)C(=O)OC[C@@H]1CCCN1C(=O)[C@H](CC=C)CC(=O)N[C@H](CO)Cc1ccccc1 the Potency was inconclusive: 20 µM [inhibitor, single point].
For Cc1sc2ncnc(N(C)Cc3cccs3)c2c1C, the Potency was inconclusive: 35.5 µM [inhibitor, single point].
In the case of O=C(Nc1ccc2c(c1)CCC2)C1CCN(c2c3c(nc4ncnn24)CCC3)CC1, the Potency is reported as inconclusive: 35.5 µM [inhibitor, single point].
With CCc1c(C)c2ccc3c(c2oc1=O)CN(Cc1ccccc1)CO3 the “activity, negative = inhibition” value was inactive: 3.57%.
In the case of Cc1cc(C(=O)COC(=O)c2cccn2C)c(C)n1Cc1ccco1, the Potency is reported as inconclusive: 2.82 µM [inhibitor, partial curve, poor fit].
For O=C(Nc1ccccc1OC(F)F)c1cc2c(s1)CCC2, the “activity, negative = inhibition” value was inactive: -8.51%.
For CCOC(=O)C1C(=O)NC(SC)=C(C#N)C1c1ccccc1F (stereo not given), the “activity, negative = inhibition” value was inactive: -3.95%.
In the case of COc1cc(OC)cc(-c2nc3n(n2)C(c2ccccc2F)C(C(=O)Nc2cccnc2)=C(C)N3)c1 (stereo not given), the “activity, negative = inhibition” value is reported as inactive: 11%.
In the case of Cc1ccc(S(=O)(=O)NCC(c2ccc(N(C)C)cc2)N2CCCC2)cc1 (stereo not given), the Potency is reported as inconclusive: 35.5 µM [inhibitor, partial curve, poor fit].
In the case of CCN(CC)c1ccc2c(Cl)c(Br)c(=O)oc2c1, the Potency is reported as inconclusive: 14.1 µM [inhibitor, partial curve, poor fit].
With CCOC(=O)Cn1c(=O)oc2cc(S(=O)(=O)N3CCN(c4ccc(Cl)cc4)CC3)ccc21 the Potency was inconclusive: 35.5 µM [inhibitor, single point].
In the case of CCc1ccccc1NC(=O)c1ccc(S(=O)(=O)N2CCCC2)cc1, the “activity, negative = inhibition” value is reported as inactive: 10%.
For CN(Cc1ccccc1)C(=O)c1csc([C@@H]2C[C@H](O)[C@@H](CO)O2)n1, the “activity, negative = inhibition” value was inactive: 1.21%.
With C=CCNC(=O)CSc1cc([N+](=O)[O-])cc(S(=O)(=O)Cc2ccccc2)c1 the Potency was inconclusive: 15.8 µM [inhibitor, single point].
With Nc1cccc2c1C(=O)N(CCOc1ccc(F)cc1)C2=O the “activity, negative = inhibition” value was inactive: 15.3%.
In the case of COc1ccc2cc(CNc3ccc(C)cc3)c(=O)n(CC(=O)Nc3cccc(Cl)c3C)c2c1, the “activity, negative = inhibition” value is reported as inactive: 1.12%.
For COCCN1CC(=O)N(c2cccc(C)c2C)C(c2ccc(Cl)cc2)C1=O (stereo not given), the “activity, negative = inhibition” value was inactive: 1.46%.
With CC(C)C(=O)NC(c1ccc(N(C)C)cc1)c1ccc2cccnc2c1O (stereo not given) the Potency was inconclusive: 3.55 µM [inhibitor, full curve].
With COc1cc(Cl)c(C)cc1NC(=O)c1cnn(-c2ccc(F)cc2F)c1C1CCN(C(=O)OC(C)(C)C)CC1 the Potency was inconclusive: 1.41 µM [inhibitor, partial curve, poor fit].
In the case of O=C(c1cccc(S(=O)(=O)N2CCc3ccccc3C2)c1)N1CCN(c2ccccc2)CC1, the Potency is reported as inconclusive: 3.98 µM [inhibitor, single point].
In the case of CC(C)CCNC(=O)c1ccc2c(SCC(=O)O)c3c(nc2c1)CCCC3, the Potency is reported as inconclusive: 17.8 µM [inhibitor, partial curve, poor fit].
For Cc1c(C(=O)NC(C)CN2CCCCC2)oc2ccccc12 (stereo not given), the Potency was inconclusive: 7.08 µM [inhibitor, partial curve].
With COc1ccc(NS(=O)(=O)c2cccc(C(=O)N/N=C(\C)c3ccc(-n4ccnc4)cc3)c2)cc1 the “activity, negative = inhibition” value was inactive: -5.65%.
With CCOc1ccccc1NC(=O)C(NCC1CCCCC1)c1ccccc1 (stereo not given) the Potency was inconclusive: 10 µM [inhibitor, partial curve, poor fit].
In the case of O=C(CN1C(=O)NC(CCc2ccccc2)C1=O)Nc1ccc(F)c(F)c1F (stereo not given), the “activity, negative = inhibition” value is reported as inactive: -18.4%.
With O=C(C[C@@H]1C[C@H]2c3cc(NC(=O)Nc4ccccc4F)ccc3O[C@H]2[C@H](CO)O1)NCC(F)(F)F the “activity, negative = inhibition” value was inactive: -6.35%.
In the case of Cc1ccc(F)cc1C(=O)N1CCOCC1c1cc(C(=O)NCc2ccccc2)no1 (stereo not given), the “activity, negative = inhibition” value is reported as inactive: -1.42%.
For S=C1NC(c2ccccc2)N2C(=S)NC(c3ccccc3)N12 (stereo not given), the Potency was inconclusive: 1.26 µM [inhibitor, full curve, poor fit].
For O=c1[nH]cnc2c1c(-c1ccccc1)cn2-c1ccccc1, the Potency was inconclusive: 7.08 µM [inhibitor, full curve].
In the case of COc1ccc(C2C(C(C)=O)=C(O)C(=O)N2c2nccs2)cc1OC (stereo not given), the Potency is reported as inconclusive: 6.31 µM [inhibitor, single point].
For CCOC(=O)COc1ccc(S(=O)(=O)N2CCN(C(=O)OCC)CC2)cc1, the Potency was inconclusive: 35.5 µM [inhibitor, single point].
With COc1cccc2c(=O)c3c(cnn3C)n(C)c12 the Potency was inconclusive: 35.5 µM [inhibitor, partial curve, poor fit].
In the case of CCS(=O)(=O)N1CCN=C1SCc1ccccc1, the “activity, negative = inhibition” value is reported as inactive: 7.33%.
For O=C(Nc1ccccc1Cl)Nc1cccc2cccnc12, the Potency was inconclusive: 12.6 µM [inhibitor, single point].
